Results taken from PubChem BioAssay AID1645886 (National Center for Advancing Translational Sciences (NCATS), 2021).
Values joined by “and” are separate entries in the source; they are usually repeats but may differ in a detail not shown here. Equal entries are not always repeated. The whole screen tested about 16,000 compounds, of which about 260 (1.6%) were called active. Inconclusive means that the source gave no clear call. Such entries were picked first, then a sample of the others. Calls follow the shape of the dose curve; as a rule, active = well fitted inhibition curve with a large enough effect; inconclusive = small, poorly fitted or top-dose-only effect; inactive = no such curve, though single readings can be large or run the other way. A potency beside an inconclusive call is a rough fit, not a confirmed value.

The compounds below were run against Rap guanine nucleotide exchange factor 4 (Homo sapiens) (UniProt Q8WZA2) (assay: Validation qHTS for antagonist of cAMP-regulated guanine nucleotide exchange factor 4 (EPAC2)). Details: EPAC2 Rap1B BODIPY-GDP exchange, fluorescence; activity, negative = inhibition: at 112 µM (top of the series).
Chain of UniProt Q8WZA2 (Q8WZA2 whole entry, looked up): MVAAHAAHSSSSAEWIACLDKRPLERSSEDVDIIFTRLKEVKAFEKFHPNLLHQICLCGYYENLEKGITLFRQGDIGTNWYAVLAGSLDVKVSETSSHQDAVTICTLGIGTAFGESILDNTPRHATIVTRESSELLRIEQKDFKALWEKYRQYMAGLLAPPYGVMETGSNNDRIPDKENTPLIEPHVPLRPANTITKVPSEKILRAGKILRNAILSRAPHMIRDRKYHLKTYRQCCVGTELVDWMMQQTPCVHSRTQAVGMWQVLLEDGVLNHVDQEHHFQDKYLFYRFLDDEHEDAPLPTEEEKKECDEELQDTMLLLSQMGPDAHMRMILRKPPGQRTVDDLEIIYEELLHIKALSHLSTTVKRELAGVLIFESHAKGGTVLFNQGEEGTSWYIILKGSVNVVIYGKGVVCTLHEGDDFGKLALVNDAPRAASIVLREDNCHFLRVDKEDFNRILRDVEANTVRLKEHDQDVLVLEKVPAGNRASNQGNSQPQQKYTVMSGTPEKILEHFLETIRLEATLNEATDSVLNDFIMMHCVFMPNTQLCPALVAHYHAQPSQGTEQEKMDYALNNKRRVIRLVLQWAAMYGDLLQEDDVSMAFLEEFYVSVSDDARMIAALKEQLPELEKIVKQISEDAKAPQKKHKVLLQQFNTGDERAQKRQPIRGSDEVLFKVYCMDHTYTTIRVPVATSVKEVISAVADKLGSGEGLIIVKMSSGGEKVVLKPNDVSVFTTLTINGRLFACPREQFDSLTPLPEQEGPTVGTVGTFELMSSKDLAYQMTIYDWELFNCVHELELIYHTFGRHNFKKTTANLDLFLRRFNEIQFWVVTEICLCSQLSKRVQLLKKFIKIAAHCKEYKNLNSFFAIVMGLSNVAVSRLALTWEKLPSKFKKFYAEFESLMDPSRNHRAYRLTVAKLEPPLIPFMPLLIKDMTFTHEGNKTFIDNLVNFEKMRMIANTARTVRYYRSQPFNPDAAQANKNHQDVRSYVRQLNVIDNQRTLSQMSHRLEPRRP
Outline: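 Normalized against a 6.5 mM cAMP agonist control, compounds were tested on 100 nM EPAC2 exchanging Rap1B-bound BODIPY-GDP (250 nM) for 50 uM GDP. Fluorescence drop (ex 480, em 540 nm) was tracked at room temperature over 30 min at 5-min intervals.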
Also: nearly all actives have a fitted effect of over 40% in size.
Potency is read from the fitted curve at half-maximal effect; tags tell the direction and shape of the fitted curve.

Question: Which Potency does the source give for `COCC(=O)Nc1cc(C(=O)N2CCc3c([nH]c4ccccc34)C2)cc2nc(-c3ccccc3)n(C)c12` here?
Answer: inconclusive: 3.98 µM [inhibitor, full curve, poor fit]

Question: Which Potency does the source give for `CN(C)c1ccc(/C=C2/C(=O)Nc3ccccc32)cc1` here?
Answer: inconclusive: 50.1 µM [inhibitor, partial curve]

Question: With `O=C(Nc1ccccc1)N1CCCC2(CCN(C(=O)c3cc(C(F)(F)F)cc(C(F)(F)F)c3)CC2)C1` as the compound, how does the Potency read?
Answer: inconclusive: 39.8 µM [inhibitor, partial curve]

Question: How did the Potency turn out when `CS(=O)(=O)N1CCC2(CCCN(C(c3ccccc3)c3ccccc3)C2)CC1` was run?
Answer: inconclusive: 11.2 µM [inhibitor, partial curve, poor fit]

Question: `COc1ccc2ccccc2c1CN1CCOc2ccc(CN3CCN(CCO)CC3)cc2C1` was tested. Which “activity, negative = inhibition” value did it give?
Answer: inactive: -27.2%

Question: With `COc1cc(NS(C)(=O)=O)ccc1Nc1c2ccccc2nc2ccccc12` as the compound, how does the Potency read?
Answer: inconclusive: 15.8 µM [inhibitor, partial curve, poor fit]

Question: `COC(=O)c1cn([C@@H]2C[C@@H](C(=O)N3CCCCCC3)N(Cc3cc4ccccc4s3)C2)nn1` was tested. Which Potency did it give?
Answer: inconclusive: 15.8 µM [inhibitor, full curve]

Question: For `COCCn1c(=O)c(-c2cccs2)nc2cnc(N3CCOCC3)nc21`, which “activity, negative = inhibition” value is on record?
Answer: inactive: 15.3%

Question: With `Cc1ccc(Cl)c(Nc2ccccc2C(=O)O)c1Cl` as the compound, how does the Potency read?
Answer: inconclusive: 35.5 µM [inhibitor, partial curve] and inconclusive: 11.2 µM [inhibitor, full curve, poor fit]

Question: For `Cn1cccc1C(=O)N1CCC[C@@]2(CCN(C(c3ccccc3)c3ccccc3)C2)C1`, which Potency is on record?
Answer: inconclusive: 35.5 µM [inhibitor, partial curve, poor fit]

Question: Which Potency does the source give for `CC(C)C[C@@H](CO)N1CCN(Cc2ccccc2)CCC1=O` here?
Answer: inconclusive: 70.8 µM [inhibitor, partial curve, poor fit]

Question: How did the Potency turn out when `COC(=O)C1=C(C)NC(C)=C(C(=O)OCCCN2CCC(c3ccccc3)(c3ccccc3)CC2)[C@H]1c1cccc([N+](=O)[O-])c1` was run?
Answer: inconclusive: 70.8 µM [inhibitor, partial curve, poor fit] and inconclusive: 56.2 µM [inhibitor, partial curve]

Question: `CN1CCCN(C(=O)[C@@H]2C[C@@H](Sc3nc4ccccc4[nH]3)CN2Cc2ccc(OC(F)(F)F)cc2)CC1` was tested. Which “activity, negative = inhibition” value did it give?
Answer: inactive: -5.08%

Question: `COC(=O)[C@H](CC(C)C)NS(=O)(=O)N(Cc1ccccc1)[C@@H](CC(C)C)C(=O)OC` was tested. Which Potency did it give?
Answer: inconclusive: 22.4 µM [inhibitor, partial curve, poor fit]

Question: For `COc1ccc(Oc2ncc3nc(C)c(=O)n(Cc4cccc(OC)c4)c3n2)cc1`, which Potency is on record?
Answer: inconclusive: 14.1 µM [inhibitor, full curve, poor fit]

Question: For `COCCOC(=O)C1=C(C)NC(C)=C(C(=O)OC/C=C/c2ccccc2)C1c1cccc([N+](=O)[O-])c1` (stereo not given), which Potency is on record?
Answer: inconclusive: 11.2 µM [inhibitor, partial curve, poor fit]

Question: `O=c1cnc2cnc(Oc3ccccc3)nc2n1Cc1cccs1` was tested. Which Potency did it give?
Answer: active: 12.6 µM

Question: With `COc1cccc(-c2cc(NCCc3c[nH]c4ccc(OC)cc34)ncn2)c1` as the compound, how does the Potency read?
Answer: inconclusive: 63.1 µM [inhibitor, partial curve, poor fit]

Question: With `Cc1ncc2c(c1CNC(=O)/C=C/c1cccs1)CCN(C(=O)c1cc(C(C)C)on1)C2` as the compound, how does the Potency read?
Answer: inconclusive: 89.1 µM [inhibitor, single point]

Question: For `COC(=O)CC[C@@H](C)[C@H]1CC[C@H]2[C@@H]3CC[C@@H]4C[C@H](O)CC[C@]4(C)[C@H]3C[C@H](O)[C@]12C`, which Potency is on record?
Answer: inconclusive: 56.2 µM [inhibitor, partial curve]

Question: With `CN1CCN(c2nc3cc(C(F)(F)F)ccc3n3cccc23)CC1` as the compound, how does the Potency read?
Answer: inconclusive: 56.2 µM [inhibitor, partial curve] and inconclusive: 25.1 µM [inhibitor, full curve, poor fit]

Question: With `CCCCCc1ccc(-c2cn(Cc3cccc(OC)c3)nn2)cc1` as the compound, how does the Potency read?
Answer: inconclusive: 7.94 µM [inhibitor, partial curve, poor fit]

Question: `Cc1c(C(=O)N(C)Cc2cscn2)sc2ncnc(NC[C@H]3CCc4ccccc4O3)c12` was tested. Which Potency did it give?
Answer: inconclusive: 100 µM [inhibitor, single point]

Question: `Nc1ncn([C@@H]2O[C@H](CO)[C@@H](O)[C@H]2O)c(=O)n1` was tested. Which Potency did it give?
Answer: inconclusive: 12.6 µM [inhibitor, partial curve, poor fit]

Question: Which Potency does the source give for `CC(COc1ccccc1)N(CCCl)Cc1ccccc1` (stereo not given) here?
Answer: inconclusive: 126 µM [inhibitor, partial curve, poor fit]

Question: For `c1ccc(-c2cn(CC3CCCCC3)nn2)cc1`, which Potency is on record?
Answer: inconclusive: 70.8 µM [inhibitor, single point]

Question: With `Cc1nc2cnc(Oc3ccccc3)nc2n(Cc2cccs2)c1=O` as the compound, how does the Potency read?
Answer: inconclusive: 12.6 µM [inhibitor, full curve, poor fit]

Question: How did the Potency turn out when `CC(=O)N1CCC2(CC1)CN(c1cccc(-c3ccccc3)c1)C2` was run?
Answer: inconclusive: 2.24 µM [inhibitor, partial curve, poor fit]

Question: For `COc1ccccc1-c1ccc2ncnc(Nc3ccccc3)c2c1`, which Potency is on record?
Answer: inconclusive: 56.2 µM [inhibitor, partial curve, poor fit]

Question: For `Cc1nc2ccccc2n1Cc1ccc(Cl)cc1`, which Potency is on record?
Answer: inconclusive: 22.4 µM [inhibitor, full curve]

Question: How did the Potency turn out when `Cn1cc(-c2nc3cncnc3n(-c3ccccc3)c2=O)c2ccccc21` was run?
Answer: inconclusive: 39.8 µM [inhibitor, partial curve, poor fit]

Question: Which Potency does the source give for `Cc1cc2c(c(-c3ccc(Cl)cc3)c1)OC(CNC(=O)CCC(=O)N(C)C)C2` (stereo not given) here?
Answer: inconclusive: 22.4 µM [inhibitor, full curve]

Question: For `CN(C)c1ccc(/C=C/N2C=CCc3c2ccc2ccccc32)cc1`, which Potency is on record?
Answer: inconclusive: 3.55 µM [inhibitor, full curve, poor fit]

Question: How did the “activity, negative = inhibition” value turn out when `COc1ccc(C(=O)N2CCC3(CC2)CN(c2cccc(-c4ccccc4)c2)C3)cc1` was run?
Answer: inactive: -26.3%

Question: How did the “activity, negative = inhibition” value turn out when `O=C1c2c(O)cccc2[C@@H]([C@@H]2O[C@H](CO)[C@@H](O)[C@H](O)[C@H]2O)c2cc(CO)cc(O)c21` was run?
Answer: inactive: -22.2%
